This passage reports binding signal results from PMC6451091.

What all share (settings): 20 mM HEPES pH 7.9, 100 mM NaCl, 1 mM DTT, 0.2 mg/mL BSA, 0.02% Triton X-100, 2% milk, 0.4 mg/mL salmon testes DNA; 1 h; temperature not stated; high values mean tight binding; double strand, one strand shown; sequences stand for … in GCCTAGCAC…GTGCTAGGTCTTGATTCGCTTGACGCTGCTG
Test [1] has as its target PU.1 (IVT) (UniProt P17947). Description: protein-binding microarray (PBM).
Test [2] deals with PU.1 (endogenous, THP-1 nuclear extract) (UniProt P17947). Briefly: nuclear extract protein-binding microarray (nextPBM).
In test [3] the target is T1, FLI1 (endogenous, THP-1 nuclear extract) (UniProt Q01543).
T1 sequence: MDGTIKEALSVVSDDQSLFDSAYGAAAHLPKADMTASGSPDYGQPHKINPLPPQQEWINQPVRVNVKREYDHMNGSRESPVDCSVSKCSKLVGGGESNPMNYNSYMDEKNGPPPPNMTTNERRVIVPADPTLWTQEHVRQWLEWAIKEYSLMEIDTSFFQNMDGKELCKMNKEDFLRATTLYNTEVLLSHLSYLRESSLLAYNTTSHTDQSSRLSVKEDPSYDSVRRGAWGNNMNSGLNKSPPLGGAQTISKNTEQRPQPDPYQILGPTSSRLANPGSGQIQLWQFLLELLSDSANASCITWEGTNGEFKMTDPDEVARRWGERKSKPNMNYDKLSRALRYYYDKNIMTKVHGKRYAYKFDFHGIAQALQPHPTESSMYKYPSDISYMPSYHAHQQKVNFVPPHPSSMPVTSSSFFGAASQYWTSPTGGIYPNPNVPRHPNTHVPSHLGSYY
The test is described as above.

The list shows a part of the results. For part of these data: At the low end of the ranking, values are background and their order means little. For part of these data: Measured with an extract: partners may take part in the binding.

For the sequence CAAATGAGGAACTTATGCGG, the figures for the binding signal in test [1], in test [2] and in test [3] were 6.39 z-score, 6.57 z-score and 2.31 z-score, respectively.
Taken in the same sequence, the figures for TAAAGGAGGAAGTGTCAGCA were 5.3 z-score, 5.59 z-score and 2.56 z-score.
Taken in the same sequence, the figures for GAAAAGGGGAAGTCAGACTA were 7.67 z-score, 7.14 z-score and 3.37 z-score.
The like results for AAAAAAAGGAACTGGCTAGT were, in that order, 4.9 z-score, 4.36 z-score and 1.39 z-score.
With AAAAACAGGAAGTCGCCTCC, the values for the binding signal in test [1], in test [2] and in test [3] were 7.73 z-score, 7.26 z-score and 5.01 z-score, respectively.
The like results for TCAAGGAGGAAGTGAGAGAT were, in that order, 4.31 z-score, 5.23 z-score and 2.65 z-score.
Taken in the same sequence, the figures for TAAAAGAGGAAGTGCATTCA were 8.5 z-score, 7.49 z-score and 4.66 z-score.
The like results for GAAAAGAGGAACTGGGTTTA were, in that order, 7.13 z-score, 7.04 z-score and 2.64 z-score.
For CAAAGGGGGAAGTGGAAGCA, the binding signal was determined as 5.32 z-score in test [1], 5.21 z-score in test [2] and 2.43 z-score in test [3].
The like results for TGAAAGGGGAAGTCAGATAG were, in that order, 6.45 z-score, 6.64 z-score and 2.68 z-score.
Taken in the same sequence, the figures for GGAAAGAGGAACTCTGCTCT were 5.76 z-score, 6.3 z-score and 1.96 z-score.
Taken in the same sequence, the figures for AGAGAGAGGAAGTGCTCAGA were 4.87 z-score, 4.81 z-score and 2.95 z-score.
Take CAAATGAGGAAATGATGCGG: the binding signal in test [1] is 4.49 z-score; in test [2] it was 4.67 z-score; in test [3] it was 2.11 z-score.
On to GAAAGGAGGAAGTGCTACTT, for which the binding signal in test [1] is 6.55 z-score; in test [2] it was 6.71 z-score; in test [3] it was 3.51 z-score.
The like results for TGGAAAGGGAAGTGACTCTC were, in that order, 4.88 z-score, 5.11 z-score and 2.01 z-score.
As to TCCTGGAGGAAGTGATGCTG, the binding signal in test [1] was found to be 2.92 z-score; in test [2], 2.79 z-score; in test [3] it was 2.33 z-score.
Take AGGGAAGGGAAGTGGAAGAG: the binding signal in test [1] stood at 2.68 z-score; in test [2], 2.63 z-score; in test [3], 2.07 z-score.
In the case of CAGAAGAGGAAGTGTGAAAA, the figures for the binding signal in test [1], in test [2] and in test [3] were 6.05 z-score, 6.45 z-score and 3.04 z-score, respectively.
Taken in the same sequence, the figures for TAAGAAAGGAAGTGAGCAGA were 2.26 z-score, 2.19 z-score and 2.32 z-score.
For GCAGTGGGGAAGTGCCTAAA, the binding signal in test [1] turned out to be 3.16 z-score; in test [2] it was 2.88 z-score; in test [3], 1.29 z-score.
The like results for TAGTAGAGGAAGTACTGTGA were, in that order, 4.25 z-score, 4.15 z-score and 2.38 z-score.
AAAAACAGGAAGTCAACAGG: the values for the binding signal in test [1], in test [2] and in test [3] were 7.54 z-score, 7.19 z-score and 4.84 z-score, respectively.
The like results for GTTTTGAGGAACTGCCAAAC were, in that order, 4.78 z-score, 4.66 z-score and 1.14 z-score.
Taken in the same sequence, the figures for GCTAAGAGGAAGTCAGGGAG were 4.24 z-score, 5.12 z-score and 2.72 z-score.
Taken in the same sequence, the figures for AAAGTAAGGAAGTGCTTAAA were 3.42 z-score, 3.1 z-score and 1.8 z-score.
Take AGAAAGAGGAAGTGATTGAA: the binding signal in test [1] came to 8.32 z-score; in test [2], 7.41 z-score; in test [3] it was 4.54 z-score.
AGGAAGAGGAACTGGGCCCT: the binding signal in test [1] worked out at 4.24 z-score; in test [2], 4.57 z-score; in test [3], 2.35 z-score.
GGAAAAAGGAAGTGAGGCAT: the binding signal in test [1] was determined as 5.39 z-score; in test [2], 5.71 z-score; in test [3], 3.16 z-score.
Taken in the same sequence, the figures for TAAAAGGGGAAGTTCAGTCC were 7.86 z-score, 7.4 z-score and 3.06 z-score.
Taken in the same sequence, the figures for CAGGAGAGGAAGTGGGATAG were 4.01 z-score, 4.41 z-score and 2.94 z-score.
Taken in the same sequence, the figures for TCGGTAAGGAAGTGCAGAAA were 2.15 z-score, 2.4 z-score and 1.72 z-score.
In the case of GAATTGAGGAAGTGGGGGTG, the figures for the binding signal in test [1], in test [2] and in test [3] were 6.32 z-score, 6.89 z-score and 2.77 z-score, respectively.
The like results for CAAATGAGGAACTGATTCGG were, in that order, 6.43 z-score, 6.6 z-score and 2.03 z-score.
Taken in the same sequence, the figures for AGGGAAGGGAAGTGGAATCC were 2.76 z-score, 2.57 z-score and 1.77 z-score.
The like results for ACCAGGAGGAAGTGGTTGCA were, in that order, 4.06 z-score, 4.37 z-score and 2.5 z-score.
Take CATTTGTAGAAGTACTGTGC: the values for the binding signal in test [1], in test [2] and in test [3] were 0.808 z-score, 0.989 z-score and -0.336 z-score, respectively.
The like results for TAAATGAGGAAGTCCTAGTG were, in that order, 7.77 z-score, 7.2 z-score and 3.69 z-score.
The like results for AGAAAGGGGAAGTGAGTAAA were, in that order, 7.74 z-score, 7.06 z-score and 3.63 z-score.
The like results for ACAAAAAGGCACTGTGCCCC were, in that order, -0.199 z-score, -0.391 z-score and -0.876 z-score.
AAAATGAGGAAGTGCCGAGA: the results for the binding signal in test [1], in test [2] and in test [3] were 7.79 z-score, 7.33 z-score and 3.74 z-score, respectively.
Taken in the same sequence, the figures for ACTGAGGGGAAGTGGTTCCA were 3.76 z-score, 3.49 z-score and 2.22 z-score.
Taken in the same sequence, the figures for AGAGAGAGGAAGTGGGATGG were 4.41 z-score, 4.45 z-score and 2.96 z-score.
For CGAAATGGGAAGTGCTAAAC, the binding signal amounted to 4.8 z-score in test [1], 4.65 z-score in test [2] and 1.84 z-score in test [3].
Taken in the same sequence, the figures for CAAAAGAGGAACTGATGCGG were 6.77 z-score, 6.93 z-score and 2.5 z-score.
The like results for ACAAAAAGGATCTGTGCCCC were, in that order, -0.732 z-score, -0.233 z-score and -0.000778 z-score.
The like results for GGTAGAGAGAAGTACTGTGG were, in that order, 1.15 z-score, 1.08 z-score and -0.907 z-score.
CAAAAGAGGAAGTGGCATAT: the figures for the binding signal in test [1], in test [2] and in test [3] were 8.01 z-score, 7.16 z-score and 4.19 z-score, respectively.
As to GATGAGAGGAAGTCCTCTGT, the binding signal in test [1] came out at 3.77 z-score; in test [2] it was 3.25 z-score; in test [3], 2.2 z-score.
GAGAAGAGGAACTGAGTAGA: the binding signal turned out to be 3.96 z-score in test [1], 4.51 z-score in test [2] and 1.46 z-score in test [3].
With GAGAAGGGGAAGTGAAGATG, the figures for the binding signal in test [1], in test [2] and in test [3] were 5.25 z-score, 5.94 z-score and 2.4 z-score, respectively.
